The record followed here is a collection of fitness landscapes (doi:10.1016/j.celrep.2020.107928).

B1: Caulobacter ParB omega fusion; a variant is named by its letters at X, in order, B8GW30 (parent)
chain: MESVVVGEPGMSEGRRGLGRGLSALLGEVDAAPAQAPGEQLGGSREAPIEILQRNPDQPRRTFREEDLEDLSNSIREKGVLQPILVRPSPDTAGEYQIVAGERAWRAAQRAGLKTVPIMVRELDDLAVLEIGIIENVQRADLNVLEEALSYKVLMEKFERTQENIAQTIGKSXSHVANXMRLLXLPDEVQSYLVSGELTAXHARAIAAAADPVALAKQIIEGGLSVRETEALARKAPNLSAGKSKGGRPPRVKDTDTQALESDLSSVLGLDVSIDHRGSTGTLTITYATLEQLDDLCNRLTRGI

Over roughly 81,000 sequences, “one-hybrid fitness for binding NBS DNA” has its median near -0.1; the highest 2% begin near 0.36. The list shows a part of the results. Bounds are passed on as bounds.

The test covers variants of B1. The experiment in a line: one-hybrid fitness for binding NBS DNA (the Noc-binding site; scaled: cognate 1, non-cognate 0); higher = stronger binding. Particulars: with NBS DNA site. In a few lines: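 Bacterial one-hybrid selection in E. coli USO rpoZ- hisB- pyrF- with a HIS3 reporter carrying the site 19 bp from the promoter, screening Caulobacter ParB libraries with four specificity codons randomised (NNS). Cells grew 48 hours at 37°C on M9-minus-histidine plus 0.1 mM IPTG and 5 mM 3-AT. Plasmids before and after selection were Illumina-sequenced, three replicate libraries pooled, and variants under 10 reads dropped. Fitness is the log change in variant-to-wild-type read ratio, rescaled to cognate 1, non-cognate 0.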
With RHEQ, the “one-hybrid fitness for binding NBS DNA” value was at most 0.2.
Next, STSP: at most 0.2.
Next, RAHK: at most 0.2; PRMS: at most 0.2.
For AIQV, the “one-hybrid fitness for binding NBS DNA” value was at most 0.2.
Next, HLPW: at most 0.2.
Next, EILT: at most 0.2; HNDY: at most 0.2.
With DTRM the figure was at most 0.2.
LTEF: the “one-hybrid fitness for binding NBS DNA” value was at most 0.2.
Next, SNPD: at most 0.2; RYRC: 0.357; LKHP: at most 0.2.
For the variant MSMP, the “one-hybrid fitness for binding NBS DNA” value was at most 0.2.
With ENYV the figure was at most 0.2.
Next, PSSR: at most 0.2.
Next, QCHN: 0.22; FLPD: at most 0.2; QTNC: 0.329.
Turning to SNFG, the “one-hybrid fitness for binding NBS DNA” value is at most 0.2.
For the variant TRAS, the “one-hybrid fitness for binding NBS DNA” value is at most 0.2.
With TAWP the figure was at most 0.2; with RCPM, at most 0.2; with VKDD, at most 0.2.
With SYFG the figure was at most 0.2.
Next, FRRG: at most 0.2.
LWHW: the “one-hybrid fitness for binding NBS DNA” value was at most 0.2.
With SIRC the figure was at most 0.2.
With YVPG the figure was at most 0.2; with IDSR, at most 0.2.
Regarding TWWS, the “one-hybrid fitness for binding NBS DNA” value is at most 0.2.
Next, EAYV: at most 0.2; KMWG: at most 0.2; RNSQ: at most 0.2.
Next, SIED: at most 0.2; IVTS: at most 0.2; TQPD: at most 0.2.
With KLTF the figure was at most 0.2; with HRFR, at most 0.2; with RGFE, at most 0.2.
With HINC, the “one-hybrid fitness for binding NBS DNA” value is at most 0.2.
Next, WLFS: at most 0.2; CELG: at most 0.2.
With LYSD the figure was at most 0.2.
With DRHI, the “one-hybrid fitness for binding NBS DNA” value was at most 0.2.
Next, MPTN: at most 0.2.
Next, AAIS: at most 0.2; RQWI: at most 0.2.
With TQRH the figure was at most 0.2.
Take IIWR: the “one-hybrid fitness for binding NBS DNA” value is at most 0.2.
As to AAKA, the “one-hybrid fitness for binding NBS DNA” value was at most 0.2.
With DGWT the figure was at most 0.2.
Next, YGRS: at most 0.2; SNRP: at most 0.2; KRTI: at most 0.2.
Next, YALW: at most 0.2; NNPR: at most 0.2.
With WATC, the “one-hybrid fitness for binding NBS DNA” value was at most 0.2.
With PVRY the figure was at most 0.2.
With IHNG the figure was at most 0.2; with QIHN, at most 0.2; with AACR, at most 0.2.
Next, EYHT: at most 0.2; CHSP: at most 0.2.
In the case of VALD, the “one-hybrid fitness for binding NBS DNA” value is at most 0.2.
QKFS: the “one-hybrid fitness for binding NBS DNA” value amounted to 0.277.
With RTCQ the figure was at most 0.2; with SPHS, at most 0.2; with TAAR, at most 0.2.
Next, KYNA: at most 0.2; RDVT: at most 0.2.
With PRKW the figure was 0.446.
For NNAC, the “one-hybrid fitness for binding NBS DNA” value is at most 0.2.
With ECVS the figure was at most 0.2.
Next, AHWP: at most 0.2; MSMR: at most 0.2.
For the variant FAAD, the “one-hybrid fitness for binding NBS DNA” value is at most 0.2.
Next, QLDI: at most 0.2.
Take NDHA: the “one-hybrid fitness for binding NBS DNA” value is at most 0.2.
With GLVI the figure was at most 0.2; with FIKG, at most 0.2; with YSSA, at most 0.2.
With LCAC the figure was at most 0.2; with CNPT, at most 0.2.
With RSIW, the “one-hybrid fitness for binding NBS DNA” value is at most 0.2.
As for IHIM, the “one-hybrid fitness for binding NBS DNA” value is at most 0.2.
For the variant SDGS, the “one-hybrid fitness for binding NBS DNA” value was at most 0.2.
As for AEDA, the “one-hybrid fitness for binding NBS DNA” value is at most 0.2.
With KTVS the figure was at most 0.2; with IFSI, at most 0.2.
With SSPT the figure was at most 0.2.
With ELMF the figure was at most 0.2.
Turning to NDLM, the “one-hybrid fitness for binding NBS DNA” value is at most 0.2.
Next, ISQS: at most 0.2.
With SPGR the figure was at most 0.2; with TTDF, at most 0.2; with RSAY, at most 0.2.
Next, AHTE: at most 0.2; TDDS: at most 0.2; YIFG: at most 0.2.
As to GHML, the “one-hybrid fitness for binding NBS DNA” value was at most 0.2.
Next, EGCL: at most 0.2.
Next, HTSC: at most 0.2; IYPK: at most 0.2.
With LYEG, the “one-hybrid fitness for binding NBS DNA” value was at most 0.2.
Next, IDVS: at most 0.2; NWNC: at most 0.2; MTTG: at most 0.2.
On to KTTL, for which the “one-hybrid fitness for binding NBS DNA” value was at most 0.2.
Next, SYQG: at most 0.2.
Next, MLPS: at most 0.2.
Turning to SYDF, the “one-hybrid fitness for binding NBS DNA” value is at most 0.2.
Turning to KLYE, the “one-hybrid fitness for binding NBS DNA” value was at most 0.2.
With QSRT the figure was 0.723; with TALK, at most 0.2.
Next, TTSL: at most 0.2; SFKI: at most 0.2.
Next, RNCR: at most 0.2.
Consider RMTK, for which the “one-hybrid fitness for binding NBS DNA” value was at most 0.2.
Next, TTGS: at most 0.2; KVKS: at most 0.2.
Next, IKYL: at most 0.2; QIVT: 0.236.
With GVNF the figure was at most 0.2; with YVVC, at most 0.2.
Turning to GQRD, the “one-hybrid fitness for binding NBS DNA” value was at most 0.2.
Next, DRFK: at most 0.2.
Next, WHIG: at most 0.2; CPKA: at most 0.2; PFSD: at most 0.2.
Next, LSPQ: at most 0.2.
Turning to ELYT, the “one-hybrid fitness for binding NBS DNA” value is at most 0.2.
Next, ERVS: at most 0.2.
Take SPYA: the “one-hybrid fitness for binding NBS DNA” value is at most 0.2.
For the variant RMGD, the “one-hybrid fitness for binding NBS DNA” value is at most 0.2.
With KYSL the figure was at most 0.2.
Next, TAAQ: at most 0.2; PINM: at most 0.2.
Next, FTMS: at most 0.2; RPRR: at most 0.2; PWKN: at most 0.2.
Turning to QVII, the “one-hybrid fitness for binding NBS DNA” value was at most 0.2.
Regarding YIER, the “one-hybrid fitness for binding NBS DNA” value was at most 0.2.
Turning to FCDL, the “one-hybrid fitness for binding NBS DNA” value was at most 0.2.
In the case of HNYT, the “one-hybrid fitness for binding NBS DNA” value is at most 0.2.
Take QDER: the “one-hybrid fitness for binding NBS DNA” value was at most 0.2.
Next, QLIW: at most 0.2.
Regarding APPI, the “one-hybrid fitness for binding NBS DNA” value was at most 0.2.
With SDDY the figure was at most 0.2; with QTLG, at most 0.2.
With NGRS the figure was at most 0.2; with TTVG, at most 0.2.
With MSHP the figure was at most 0.2.
